This is an account of results in the antibiotic and cytotoxicity screens of Wong et al. (2023).

Some of the results follow.

The first test relates to HepG2. As to the kind of experiment: cytotoxicity call (relative viability < 0.9). To be noted: 10 µM.
For the compound `C[C@H]1CN([C@@H](C)CO)S(=O)(=O)c2ccc(C#Cc3ccncc3)cc2O[C@H]1CN(C)C(=O)Nc1ccc2c(c1)OCO2`, the cytotoxicity call is “active”.

With `Cc1noc(C)c1S(=O)(=O)N(C)C[C@@H]1Oc2ccc(NS(=O)(=O)c3ccc(Cl)cc3)cc2C(=O)N([C@H](C)CO)C[C@@H]1C`, the cytotoxicity call was “inactive”.

In the case of `Cc1ccc(S(=O)(=O)N(C)C[C@H]2Oc3ccc(NS(C)(=O)=O)cc3CC(=O)N([C@@H](C)CO)C[C@@H]2C)cc1`, the cytotoxicity call was “inactive”.

In the case of `C[C@H]1CN([C@@H](C)CO)C(=O)CCCn2nncc2CO[C@H]1CN(C)C(=O)Nc1ccc2c(c1)OCCO2`, the cytotoxicity call was “inactive”.

Take `O=C(C[C@@H]1CC[C@@H](NC(=O)Nc2ccc3c(c2)OCO3)[C@H](CO)O1)NCCCN1CCOCC1`: the cytotoxicity call is “inactive”.

Regarding `CC(=O)NCC(=O)N1CCC2(CC1)C(=O)N(CC1CC1)CCN2C`, the cytotoxicity call is “inactive”.

A further test concerns S. aureus RN4220. The test can be described thus: growth inhibition call (relative growth <= 0.2). To be noted: 50 µM.
With `C[C@H]1CN([C@@H](C)CO)C(=O)c2cc(Br)cnc2O[C@@H]1CN(C)S(=O)(=O)c1ccccc1`, the growth inhibition call was “inactive”.

For `Cc1noc(C)c1NC(=O)N(C)C[C@H]1Oc2ccc(NS(=O)(=O)c3cccs3)cc2CC(=O)N([C@@H](C)CO)C[C@@H]1C`, the growth inhibition call is “inactive”.

For the compound `CC/N=c1\nc(NCC)[nH]c(=S)[nH]1`, the growth inhibition call is “inactive”.

Turning to `CNC[C@H]1Oc2ccc(NC(=O)CCN3CCOCC3)cc2CC(=O)N([C@H](C)CO)C[C@@H]1C`, the growth inhibition call is “inactive”.

Regarding `COC(=O)C[C@H]1CC[C@@H]2[C@H](COC[C@H](O)CN2S(=O)(=O)c2ccc(F)cc2)O1`, the growth inhibition call is “inactive”.

As for `C[C@H](CO)N1C[C@H](C)[C@H](CN(C)Cc2ccc(-c3ccccc3)cc2)Oc2ccc(NC(=O)Nc3ccc(C(F)(F)F)cc3)cc2C1=O`, the growth inhibition call is “inactive”.

Take `COCC(=O)N1C[C@@H](C)[C@H](OC)CN(C)C(=O)c2cc(NC(=O)c3ccc(OC)cc3)ccc2OC[C@@H]1C`: the growth inhibition call was “inactive”.

As to `C[C@H]1CCCCO[C@@H](CN(C)C(=O)c2ccccc2)[C@@H](C)CN([C@@H](C)CO)C(=O)c2cc(NC(=O)Nc3ccc(C(F)(F)F)cc3)ccc2O1`, the growth inhibition call is “inactive”.

As to `O=C(C[C@@H]1C=C[C@@H](NS(=O)(=O)c2ccc(F)cc2)[C@@H](CO)O1)NCc1ccc(Cl)c(Cl)c1`, the growth inhibition call was “inactive”.

Regarding `C[C@H]1CN([C@@H](C)CO)C(=O)Cc2cc(NC(=O)CCN3CCOCC3)ccc2O[C@@H]1CN(C)S(=O)(=O)c1cn(C)cn1`, the growth inhibition call was “inactive”.

Turning to `CO[C@@H]1CN(C)C(=O)c2cc(NS(=O)(=O)c3cn(C)cn3)ccc2OC[C@H](C)N(CCC(F)(F)F)C[C@@H]1C`, the growth inhibition call was “inactive”.

For `C[C@@H]1CCCCO[C@@H](CN(C)C(=O)Nc2ccc3c(c2)OCO3)[C@@H](C)CN([C@H](C)CO)C(=O)c2cc(NS(=O)(=O)c3ccc(F)cc3)ccc2O1`, the growth inhibition call is “inactive”.

As for `C[C@@H]1CN([C@@H](C)CO)C(=O)Cc2cc(NS(=O)(=O)c3ccc(Cl)cc3)ccc2O[C@H]1CN(C)C(=O)Nc1cccc2ccccc12`, the growth inhibition call was “inactive”.

In the case of `C[C@@H]1CN([C@H](C)CO)C(=O)Cc2cc(NC(=O)Nc3ccc(F)cc3)ccc2O[C@H]1CN(C)Cc1ccc(Oc2ccccc2)cc1`, the growth inhibition call was “inactive”.

As for `O=C(C[C@@H]1C=C[C@H](NC(=O)c2ccc3c(c2)OCO3)[C@@H](CO)O1)NCc1ccc(Oc2ccccc2)cc1`, the growth inhibition call is “inactive”.

For `CCCNC(=O)C[C@@H]1CC[C@@H]2[C@H](COc3ccc(NS(=O)(=O)c4ccccc4C)cc3C(=O)N2C)O1`, the growth inhibition call is “inactive”.

As for `CCS(=O)(=O)Nc1ccc2c(c1)C(=O)N(C)C[C@H](OC)[C@@H](C)CN(C(=O)c1ccc3c(c1)OCO3)[C@@H](C)CO2`, the growth inhibition call was “inactive”.

As for `C[C@@H]1CCCCO[C@H](CN(C)C(=O)CCCN(C)C)[C@H](C)CN([C@@H](C)CO)C(=O)c2cc(NS(C)(=O)=O)ccc2O1`, the growth inhibition call was “inactive”.

Turning to `COc1cccc(S(=O)(=O)N2C[C@H](O)COC[C@@H]3O[C@@H](CC(=O)NCCCN4CCOCC4)CC[C@H]32)c1`, the growth inhibition call was “inactive”.

With `C[C@H](CO)N1C[C@H](C)[C@H](CN(C)C(=O)Nc2ccc(N3CCCCC3)cc2)OCc2cn(nn2)CCCC1=O`, the growth inhibition call was “inactive”.

`COc1ccc(CN(C)C[C@@H]2OCCCC[C@@H](C)Oc3ccc(NC(=O)Nc4c(C)noc4C)cc3C(=O)N([C@H](C)CO)C[C@@H]2C)cc1`: the growth inhibition call is “inactive”.

Regarding `COCCNC(=O)C[C@H]1C[C@H]2c3cc(NC(=O)CN(C)C)ccc3O[C@H]2[C@H](CO)O1`, the growth inhibition call was “inactive”.

For the compound `C[C@@H]1CN([C@H](C)CO)C(=O)Cc2cc(NC(=O)Cn3cnnn3)ccc2O[C@H]1CN(C)C(=O)Nc1cccc2ccccc12`, the growth inhibition call is “inactive”.

Take `CN1CCN(C(=O)C[C@H]2C=C[C@@H](NS(=O)(=O)c3cccc(F)c3)[C@H](CO)O2)CC1`: the growth inhibition call was “inactive”.

Regarding `CC(C)NC(=O)Nc1ccc2c(c1)CC(=O)N([C@@H](C)CO)C[C@H](C)[C@H](CN(C)Cc1ccc3c(c1)OCO3)O2`, the growth inhibition call is “inactive”.

`COCCCNC(=O)[C@@]1(Sc2ccc(C)cc2)CC(=O)N(Cc2ccccc2C(F)(F)F)[C@@H]1c1ccc(CO)cc1`: the growth inhibition call is “inactive”.

As to `COc1ccc(NC(=O)N(C)C[C@@H]2OCCCC[C@H](C)Oc3ccc(NC(=O)Nc4ccccc4)cc3C(=O)N([C@H](C)CO)C[C@@H]2C)cc1`, the growth inhibition call was “inactive”.

Take `C[C@@H]1CN([C@@H](C)CO)C(=O)c2cccc(NC(=O)Nc3ccc(C(F)(F)F)cc3)c2O[C@@H]1CN(C)C(=O)Nc1ccc(C(F)(F)F)cc1`: the growth inhibition call is “inactive”.

With `C[C@@H]1CN([C@H](C)CO)C(=O)c2cc(N(C)C)ccc2O[C@@H](C)CCCCO[C@H]1CN(C)C(=O)Nc1ccc(C(F)(F)F)cc1`, the growth inhibition call was “inactive”.

Take `Cc1ccc(S(=O)(=O)N(C)C[C@@H]2OCCCC[C@H](C)Oc3ccc(NC(=O)Nc4ccccc4)cc3C(=O)N([C@@H](C)CO)C[C@H]2C)cc1`: the growth inhibition call was “inactive”.

In the case of `COc1cccc(OCc2ccc(Cn3nc(NC(=O)NCc4ccc(F)cc4)c4ccccc43)cc2)c1`, the growth inhibition call was “inactive”.

`CC1(C)OC(=O)N(CCCC(=O)O)[C@@]1(C)O`: the growth inhibition call is “inactive”.

For the compound `C[C@H](CO)N1C[C@H](C)[C@H](CN(C)Cc2ccc(C(F)(F)F)cc2)Oc2ccc(NC(=O)Cn3cnnn3)cc2C1=O`, the growth inhibition call was “inactive”.

Take `C[C@@H]1CN([C@@H](C)CO)S(=O)(=O)c2ccc(C#Cc3cccc(F)c3)cc2O[C@@H]1CN(C)S(=O)(=O)c1cn(C)cn1`: the growth inhibition call was “inactive”.

As for `C[C@H]1CN([C@@H](C)CO)S(=O)(=O)c2ccc(C#Cc3ccncc3)cc2O[C@H]1CN(C)C(=O)Nc1ccc2c(c1)OCO2`, the growth inhibition call is “inactive”.

For `Cc1noc(C)c1S(=O)(=O)N(C)C[C@@H]1Oc2ccc(NS(=O)(=O)c3ccc(Cl)cc3)cc2C(=O)N([C@H](C)CO)C[C@@H]1C`, the growth inhibition call is “inactive”.

With `Cc1ccc(S(=O)(=O)N(C)C[C@H]2Oc3ccc(NS(C)(=O)=O)cc3CC(=O)N([C@@H](C)CO)C[C@@H]2C)cc1`, the growth inhibition call is “inactive”.

For the compound `C[C@H]1CN([C@@H](C)CO)C(=O)CCCn2nncc2CO[C@H]1CN(C)C(=O)Nc1ccc2c(c1)OCCO2`, the growth inhibition call was “inactive”.

Take `O=C(C[C@@H]1CC[C@@H](NC(=O)Nc2ccc3c(c2)OCO3)[C@H](CO)O1)NCCCN1CCOCC1`: the growth inhibition call is “inactive”.

In the case of `CC(=O)NCC(=O)N1CCC2(CC1)C(=O)N(CC1CC1)CCN2C`, the growth inhibition call is “inactive”.
